According to the supplement of paper PMC4466236:
In all, about 33,000 sequences were measured (“E-score (dimensionless, -0.5 to 0.5)”: median about -0.058, highest 2% from about 0.35 on). Some of the results follow.

These sequences were tested on MvaT (assay: PBM 8-mer E-score (mean of HK and ME arrays) (E-score (dimensionless, -0.5 to 0.5)); higher = stronger relative binding preference; most listed sequences are background and not binding sites).
Protocol: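 Protein binding microarray: GST-tagged full-length MvaT (P. aeruginosa PAO1) bound to two universal double-stranded 60-mer arrays (ME and HK), each with a constant 25-mer primer and a variable 35-mer region covering all 8-mers. The 8-mer E-score (rank-based, range -0.5 to 0.5, >0.45 = specific binding) is the mean of the two arrays.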

Row | Sequence | PBM 8-mer E-score
1 | AGCACTTC | -0.111
2 | AAGTGGGG | -0.172
3 | CATTAGTA | 0.191
4 | ACCCATCC | -0.145
5 | TCGTTAAA | 0.156
6 | CACATCTC | -0.124
7 | TCATCAAA | 0.094
8 | TCGATAGA | 0.0356
9 | AGAGCCCG | -0.211
10 | ATTAACAA | 0.381
11 | GAACACCA | -0.123
12 | CCTCCAAG | -0.224
13 | ACCGTTAT | 0.229
14 | ACTCATCA | 0.0732
15 | AGGCACCA | -0.116
16 | AATCGATA | 0.214
17 | CCTTCCGC | -0.319
18 | GAATGACC | -0.0984
19 | ACGCCTAC | -0.3
20 | AATAGTTA | 0.387
21 | ATTCAATA | 0.309
22 | CGATCGAC | -0.109
23 | TTCATCAA | 0.159
24 | TATTCTAA | 0.278
25 | TAGCATGA | -0.125

Row | Sequence | PBM 8-mer E-score
26 | CACCTGAG | -0.24
27 | CGAATATC | 0.0677
28 | AGGATAAG | 0.0764
29 | ACAGGAAT | 0.0389
30 | GCGGCTAA | -0.119
31 | GACCAGGA | -0.274
32 | TGGGTGAA | 0.102
33 | AACCAATG | -0.101
34 | AATTATAG | 0.37
35 | GCGTATGA | 0.156
36 | AAGCCAAC | -0.0388
37 | CCAGTCCC | -0.327
38 | TGCCTCCA | -0.234
39 | CAGCGTGC | -0.282
40 | ATTTTCAC | 0.178
41 | AGGTAAGA | 0.0841
42 | CTAGCGAG | -0.101
43 | ATCAACAT | 0.0394
44 | AAGAACGT | -0.0503
45 | CCCCATGC | -0.262
46 | TTCGTCAA | 0.0954
47 | CAATTCAG | 0.207
48 | GTCTAAAC | 0.0242
49 | ATCAGTAC | 0.144
50 | CAGACCCG | -0.183

Row | Sequence | PBM 8-mer E-score
51 | ACGGGCAA | -0.0766
52 | CTACTATC | 0.183
53 | CGTTGGCA | -0.22
54 | AACATCGT | 0.118
55 | GGGGTTGA | -0.0727
56 | GATAAACC | 0.133
57 | GACCTCTC | -0.331
58 | CTCGGAAG | -0.0476
59 | AACTACCG | 0.133
60 | CTAGAGAC | -0.156
61 | ACGGATTG | -0.0278
62 | GATGCTGC | 0.0423
63 | AAAGGGTG | -0.191
64 | CCTACCGA | -0.165
65 | CGGGTCGA | -0.149
66 | ACATGTGC | -0.159
67 | CGGCTTTC | -0.179
68 | AGCTAGAG | -0.228
69 | ACCCCTCT | -0.132
70 | ACTCCTTC | -0.27
71 | GAGGTCTA | -0.186
72 | ACCGTGTG | -0.273
73 | ACTGTCAG | -0.0723
74 | GTTAGGCA | -0.0384
75 | CGCAATCC | -0.15

Row | Sequence | PBM 8-mer E-score
76 | AATTACTC | 0.263
77 | CCACTAGA | -0.0219
78 | GCGATGGA | -0.156
79 | AGTATATA | 0.446
80 | CGCCCCAC | -0.277
81 | AGCTTGCC | -0.279
82 | AGGACTCC | -0.184
83 | AACGAGCC | -0.124
84 | ATGCCCTA | -0.144
85 | CCTCTTCG | -0.264
86 | CTTGCCTC | -0.163
87 | CCCACGAG | -0.0913
88 | ACGTGGAG | -0.153
89 | AGACTGTC | -0.0538
90 | CCGGCTAC | -0.217
91 | CCAAATAG | 0.048
92 | ATACTGAC | 0.134
93 | TCGAACGA | -0.105
94 | GAGGTATC | -0.196
95 | CATAAATA | 0.358
96 | CGGTGTAC | -0.0511
97 | CTGAAAAC | 0.113
98 | CGGAGTCC | -0.236
99 | CGCGGCTA | -0.0237
100 | AAGGGCAC | -0.2

Row | Sequence | PBM 8-mer E-score
101 | GCATTGCA | 0.011
102 | ACTCATAA | 0.0577
103 | CTCTAAAG | -0.0253
104 | AGCTCATG | -0.256
105 | ACGCAACC | -0.0683
106 | AAAGGTAG | 0.0786
107 | CTGCCCCC | -0.322
108 | CTGACGCC | -0.204
109 | CACTGAAC | 0.0731
110 | ACGCGGTC | -0.138
111 | ATCCCTAG | -0.128
112 | ACCACCTA | -0.0787
113 | GTATTGAC | 0.15
114 | ACGACCGA | -0.251
115 | GGGGAAAC | 0.053
116 | ATCCAATG | 0.0281
117 | CTCATGGA | -0.0725
118 | GGGATGTA | -0.0302
119 | AAGAGACC | -0.127
120 | CCAGGAGC | -0.198
121 | GACACTCC | -0.114
122 | AAGAGCCA | 0.00662
123 | GACACATC | -0.0667
124 | CTGCGATA | -0.0086
125 | CCTTTTAA | 0.331

Row | Sequence | PBM 8-mer E-score
126 | AAGTCCGA | -0.148
127 | AGATACGG | -0.112
128 | TAAAGGGA | 0.0582
129 | GATATAGC | 0.127
130 | CAAGCCCA | -0.254
131 | CAATCGAA | -0.026
132 | CACCATCA | -0.0135
133 | AAGCTGGA | -0.137
134 | AACTGGTG | -0.0588
135 | GTTTCTCA | -9.41e-05
136 | TAGAGGCA | -0.0541
137 | CAAGCCCG | -0.307
138 | ACTTATAA | 0.419
139 | TCTGAGAA | -0.0369
140 | ATAAGTCA | 0.17
141 | GAAGTTAC | 0.168
142 | GATTGTAC | 0.161
143 | CCAATACA | 0.142
144 | AGTAGCAG | -0.0622
145 | ATCGCGAG | 0.0131
146 | GGGAGCAC | -0.308
147 | CACCATAA | 0.0993
148 | ATCATTCG | -0.042
149 | TACCAGCA | -0.0496
150 | AGATGGCG | -0.0778

Row | Sequence | PBM 8-mer E-score
151 | AGGTGTGG | 0.00346
152 | ACCTGTGA | -0.184
153 | GTCTAGGA | -0.207
154 | GTATTTTA | 0.37
155 | AGTAAATG | 0.175
156 | AACGATCC | -0.0862
157 | ACTTTGAG | 0.03
158 | CAAGCCGC | -0.254
159 | GCTTTGTA | -0.0103
160 | ATTGCATG | 0.0576
161 | CCCTGCCC | -0.27
162 | AATGGTCG | -0.118
163 | AAGGGGGT | -0.225
164 | CAGTCCTC | -0.215
165 | ATCCCGTC | -0.218
166 | ACGGTACA | 0.0904
167 | CAAAGGAG | -0.218
168 | CATGACGA | -0.0695
169 | TCATGAGA | -0.065
170 | CACTGATG | -0.06
171 | GCGCCGTA | -0.159
172 | GACGGCCA | -0.21
